Laboratory results as given in the supplement of paper PMC3334620.
Whole data set: some 33,000 sequences, median “E-score (-0.5 to 0.5)” near -0.04, cut for the highest 2% near 0.36. The list shows a part of the results.

Molecular target: T1, Hmlalpha2 (UniProt P0CY09)
T1 sequence: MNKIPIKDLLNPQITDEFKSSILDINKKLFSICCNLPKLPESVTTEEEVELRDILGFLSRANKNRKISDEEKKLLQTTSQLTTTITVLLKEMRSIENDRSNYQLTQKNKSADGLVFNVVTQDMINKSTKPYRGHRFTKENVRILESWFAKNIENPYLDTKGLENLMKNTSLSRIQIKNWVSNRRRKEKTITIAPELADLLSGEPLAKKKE
Assay: PBM E-score (8-mer binding enrichment) (E-score (-0.5 to 0.5)); higher = stronger / more preferred TF binding; most listed sequences are background and not binding sites
Details: protein concentration: 200 nM; construct: GST-full length
Procedure, shortened: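 Masliner-normalised scans of fluorescent anti-GST signal were the basis for scoring. That signal came from GST-tagged yeast transcription factors applied at about 100-200 nM to double-stranded universal all-10-mer Agilent arrays on fresh or once-stripped slides. Each ungapped eight-base word, pooled with its reverse complement, received an E-score from the Universal PBM Analysis Suite.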

| Sequence | PBM E-score |
| --- | --- |
| ATTTACGA | 0.236 |
| GAGTGATC | -0.0409 |
| GCTGGGCA | -0.0146 |
| TAGGCAGA | -0.0564 |
| AGGTCCTC | -0.168 |
| AGCGTGAA | -0.0458 |
| ACCCTTCT | -0.231 |
| TCCGCTAA | -0.228 |
| CGCCGTCA | -0.136 |
| CGCTGTAC | 0.135 |
| ACATGGGC | 0.342 |
| CACGGAAG | 0.124 |
| GAGCGCGA | -0.0347 |
| GCTGCTCC | -0.204 |
| ATGACTTA | -0.0245 |
| AACGTAGC | 0.178 |
| CTGTAGAC | 0.104 |
| ATACTCGA | 0.0274 |
| CGCGCGCG | 0.0389 |
| TCGCTGCA | 0.0487 |
| CTGGATTA | 0.0226 |
| TTACACAA | 0.478 |
| CGCCGTGC | -0.00367 |
| TCGATCGA | -0.0811 |
| ACATTTAG | 0.136 |

| Sequence | PBM E-score |
| --- | --- |
| AATCCTGG | -0.0758 |
| GCTCGCGA | -0.065 |
| GATAGGTA | 0.0736 |
| AAACCCTT | 0.12 |
| CATCGCCA | -0.122 |
| GATATCTA | -0.00449 |
| AGCGTTAT | 0.0624 |
| ACGATGTC | 0.0103 |
| AACTGGCC | -0.144 |
| CCAAGATA | 0.0874 |
| CATGCCAG | -0.0888 |
| CGCTTAGA | -0.218 |
| GTTCTCTA | 0.148 |
| GAAGGTGC | -0.29 |
| GATACAGA | -0.0603 |
| CGGAGCCG | -0.194 |
| CGGTTGCA | -0.244 |
| ACGAATCG | -0.0213 |
| AGCGAACG | -0.207 |
| CGTTTCTA | 0.137 |
| ATTTCGCC | -0.104 |
| GATACCTA | 0.0911 |
| ATCATGAG | 0.0487 |
| AGCTACAC | 0.319 |
| CTTCTCGC | -0.28 |

| Sequence | PBM E-score |
| --- | --- |
| CGGCTGAC | -0.0987 |
| TACTAGCA | 0.212 |
| AGTGTTTG | 0.124 |
| TCCAGTAA | 0.00452 |
| CCCACGAA | -0.102 |
| CTTAGGAC | -0.0281 |
| CCCATGCC | -0.188 |
| ACGGTCAC | -0.196 |
| AACACCTA | 0.0399 |
| CACGCAAC | 0.291 |
| CAGCAGCC | -0.0508 |
| CGTACCAC | -0.0795 |
| GCTACCCC | -0.226 |
| CAGAAGGG | -0.171 |
| CCGCCAGA | -0.00086 |
| ACGCCACG | 0.0296 |
| ATCCGCCC | -0.281 |
| GACACACA | 0.211 |
| CGCGCGAC | -0.109 |
| ACACGCAC | 0.382 |
| ACACTGTG | 0.184 |
| AAAGGGGA | -0.337 |
| TCCGAACA | -0.0774 |
| AGTGACCA | -0.21 |
| ATATATTA | 0.222 |

| Sequence | PBM E-score |
| --- | --- |
| GTGAACAC | 0.252 |
| GGCGCGAA | -0.0217 |
| AGTAAGTG | -0.043 |
| TCTTAGCA | -0.0729 |
| TCGTTAGA | -0.122 |
| CTGTTGGC | -0.279 |
| ACGAGTGA | -0.00913 |
| ACAACATG | 0.451 |
| ATGCGGAG | -0.164 |
| AGTTCTAT | -0.119 |
| ACACCTAT | 0.0293 |
| TGTTAGAA | 0.334 |
| GGTTTCAC | 0.083 |
| GTAACTTA | 0.214 |
| GTATAAAA | 0.282 |
| CATCCCGA | -0.078 |
| GCCTCTCA | -0.335 |
| GGCTGGGA | -0.185 |
| CCCAGGCA | -0.219 |
| AACCTCTC | -0.275 |
| AGACGTAC | 0.0364 |
| AACGGCCG | -0.129 |
| CGATACTC | -0.14 |
| CCGTGAGG | -0.356 |
| GTATGTAA | 0.477 |

| Sequence | PBM E-score |
| --- | --- |
| GACCGGTC | -0.12 |
| GACCTTCC | -0.156 |
| ACACGGAC | 0.289 |
| CACAATTA | 0.203 |
| CCCGTAAA | 0.00577 |
| CATATTAG | 0.0749 |
| AGGCTCCA | -0.158 |
| ACATGGGA | 0.33 |
| GGCTTGTA | 0.261 |
| ATTCCTGG | -0.23 |
| GCGGCCAA | -0.0877 |
| ATTACTAG | 0.184 |
| GAAGGGGA | -0.0559 |
| TACCCAGA | -0.0715 |
| CCGATCAG | -0.192 |
| CACGCGTG | 0.374 |
| ATCGGGAA | -0.0774 |
| CGTAGTTA | 0.269 |
| AACCGTAC | -0.0109 |
| CCCCGTTC | -0.361 |
| CACCGAAC | -0.113 |
| ACGTTAAT | 0.304 |
| GTAATCAC | 0.257 |
| AGCGCACA | -0.14 |
| GATAAGCC | -0.323 |

| Sequence | PBM E-score |
| --- | --- |
| ACCCACCG | -0.218 |
| CCGCTCCA | -0.274 |
| ATTCCACC | 0.0297 |
| ACTGACAC | 0.122 |
| AAGGGAAT | -0.16 |
| GAGCCGAA | -0.227 |
| TGGCGTAA | 0.108 |
| CCTCAAGG | -0.235 |
| AGGCGTGA | -0.155 |
| CAAGGCAG | -0.0498 |
| AAAGAGGC | -0.323 |
| CGATCCAC | 0.0851 |
| ATGCAGGC | -0.118 |
| TTCCACAA | 0.0807 |
| TACAGCCA | -0.0918 |
| CGTAATAA | 0.378 |
| CGCACTAA | -0.0506 |
| ACGAGGAC | -0.0504 |
| CGTATCGC | -0.0235 |
| ATCGAAGA | 0.0799 |
| GCCCCCAC | -0.415 |
| CTCCTCTC | -0.348 |
| CACGCCTG | -0.0229 |
| AAGTACCG | 0.0496 |
| CTGAACGA | -0.0948 |

| Sequence | PBM E-score |
| --- | --- |
| ATGCCGTA | 0.0919 |
| CGCATTGC | 0.121 |
| GCCTTACA | 0.194 |
| CGGATCAC | 0.0757 |
| CCCTTTAA | 0.185 |
| TATACGGA | -0.0953 |
| AGACAGCC | -0.182 |
| TATGCTAA | 0.192 |
| CCACCGTC | -0.3 |
| AGTAAGCG | 0.0244 |
| AAGTTCTC | -0.0814 |
| AAGTTTGT | 0.202 |
| CCATCCGC | -0.0478 |
| GTCACATA | 0.163 |
| AACCGATC | -0.0925 |
| CACACACC | 0.187 |
| CTCCGGCC | -0.413 |
| CTCTCTCA | -0.174 |
| CATCTCAC | -0.117 |
| ACATCGTG | 0.217 |
| AAGGATTG | 0.0457 |
| AGCACCAA | -0.119 |
| CGTCCCCA | -0.224 |
| GGATTTGA | -0.0425 |
| AATACGCC | 0.0351 |

| Sequence | PBM E-score |
| --- | --- |
| AAAGCACT | -0.127 |
| CTCTGCAC | -0.0882 |
| CCGCTATC | -0.24 |
| AAAGCGAC | 0.0782 |
| GGGAATAA | -0.0908 |
| ATAAAAAG | 0.19 |
| ACGACCCG | -0.119 |
| ACGGGGGA | -0.221 |
| CACGGTGC | -0.0221 |
| CCATCGCC | -0.261 |
| CCTATACA | 0.248 |
| CATTATCG | -0.0306 |
| ATCGGTCA | -0.274 |
| GACGGTTA | -0.114 |
| ACAAGGAT | 0.316 |
| GAATAATA | 0.168 |
| ACGGAACC | 0.183 |
| CTACGTAC | 0.251 |
| CTGGTGAA | -0.0118 |
| ATACACAT | 0.399 |
| GTACAGCA | 0.0142 |
| ACAGATAC | 0.217 |
| AGGTTTTC | 0.0423 |
| ACCTTAAA | -0.106 |
| AATTCGGT | 0.00366 |

| Sequence | PBM E-score |
| --- | --- |
| AGCCTAGG | -0.315 |
| GGTATCAC | -0.148 |
| GGCATCAC | -0.252 |
| ACTTAATC | 0.0112 |
| ACGATTGC | 0.145 |
| GTCACCTA | -0.131 |
| CTGTATAC | 0.247 |
| GTCAGTCA | -0.0821 |
| GCGCTGAC | -0.254 |
| CTGCACCC | -0.243 |
| CGAGGAAA | -0.116 |
| ATGACGGC | -0.157 |
| CTATTTTC | 0.0227 |
| CATAGTGA | 0.00455 |
| CGCAGACA | 0.0313 |
| ATGGTCAA | 0.122 |
| CATCCCAG | -0.193 |
| ATATTCCA | 0.11 |
| CATATACA | 0.364 |
